This is one part of the list. These are noisy estimates, calculated here from bound and input reads.
molecular target: T1, Pho4 (S. cerevisiae) (UniProt P07270); assay: relative binding free energy (BET-seq); higher = weaker binding; conditions: reference: library average
T1 sequence: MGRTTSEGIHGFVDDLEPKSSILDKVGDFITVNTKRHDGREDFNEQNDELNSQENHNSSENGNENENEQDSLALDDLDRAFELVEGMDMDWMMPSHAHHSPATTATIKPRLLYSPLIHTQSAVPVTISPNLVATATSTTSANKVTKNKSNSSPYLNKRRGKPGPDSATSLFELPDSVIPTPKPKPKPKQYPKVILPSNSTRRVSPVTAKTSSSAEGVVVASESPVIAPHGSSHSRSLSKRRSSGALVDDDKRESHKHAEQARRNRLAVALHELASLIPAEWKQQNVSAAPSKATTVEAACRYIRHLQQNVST

Row | Sequence | relative binding free energy
1 | CAGTACACGTGGGTGG | -0.09 kcal/mol
2 | AGGGTCACGTGATCAG | 0.29 kcal/mol
3 | TGAATCACGTGTTGGC | 0.22 kcal/mol
4 | CGTTTCACGTGTGTTA | 0.22 kcal/mol
5 | AGGAGCACGTGTCAGT | -0.1 kcal/mol
6 | AAGATCACGTGGTGAG | 0.04 kcal/mol
7 | GGAGTCACGTGAAGCG | 0.33 kcal/mol
8 | AGGGTCACGTGCTTGG | -0.02 kcal/mol
9 | GTAGGCACGTGAGCTT | 0.1 kcal/mol
10 | TAAGTCACGTGGTAGG | 0.04 kcal/mol
11 | TAGTACACGTGAGAAT | 0.39 kcal/mol
12 | GGGAACACGTGTAGTG | 0.14 kcal/mol
13 | TTATGCACGTGCTTAG | -0.15 kcal/mol
14 | GTCAGCACGTGTTTTA | -0.03 kcal/mol
15 | TACAGCACGTGAGTTG | 0.15 kcal/mol
16 | GCGTACACGTGAGTTG | 0.38 kcal/mol
17 | GCTTACACGTGATGGT | 0.24 kcal/mol
18 | GATGTCACGTGTTGCA | 0.15 kcal/mol
19 | TTTGACACGTGTAGGA | 0 kcal/mol
20 | TGGGCCACGTGGATGT | -0.01 kcal/mol
21 | TTTTCCACGTGAGATG | 0.45 kcal/mol
22 | ACGTTCACGTGTGTGA | 0.17 kcal/mol
23 | TTGGTCACGTGGTCAT | 0.05 kcal/mol
24 | TAGCACACGTGTGTTT | 0.27 kcal/mol
25 | AGGAACACGTGACGGG | 0.16 kcal/mol

Row | Sequence | relative binding free energy
26 | TGTTGCACGTGCGCGG | -0.13 kcal/mol
27 | ATTCGCACGTGTTCGG | 0.01 kcal/mol
28 | TATGTCACGTGAAGAG | 0.18 kcal/mol
29 | GGAATCACGTGTAGTT | 0.15 kcal/mol
30 | TTCGACACGTGTTTAA | -0.01 kcal/mol
31 | CGTATCACGTGAGTTG | 0.24 kcal/mol
32 | GGAAGCACGTGTGGAA | -0.03 kcal/mol
33 | ATGGACACGTGAGTGA | 0.3 kcal/mol
34 | TGTTGCACGTGTGTTG | 0.09 kcal/mol
35 | ACACGCACGTGAGGGG | 0.01 kcal/mol
36 | AGATACACGTGAGGAT | 0.33 kcal/mol
37 | GTCTTCACGTGTTAAG | 0.38 kcal/mol
38 | TTGATCACGTGGTTAG | 0.15 kcal/mol
39 | TTTATCACGTGTAGTC | 0.28 kcal/mol
40 | TGGGACACGTGGAAGG | 0.1 kcal/mol
41 | GGTTCCACGTGAATGT | 0.27 kcal/mol
42 | GGAGTCACGTGTATAT | -0.01 kcal/mol
43 | TATTTCACGTGGGGAG | 0.12 kcal/mol
44 | AAGGACACGTGGGAAG | -0.02 kcal/mol
45 | GGGGCCACGTGCTGGT | -0.19 kcal/mol
46 | AGGTGCACGTGCTTAT | -0.16 kcal/mol
47 | AAGATCACGTGCTGTT | 0.14 kcal/mol
48 | GGAATCACGTGAAAGG | 0.48 kcal/mol
49 | ATTGTCACGTGCTCGG | -0.01 kcal/mol
50 | ATTTGCACGTGTGTGC | 0.05 kcal/mol

Row | Sequence | relative binding free energy
51 | TGTGCCACGTGGGAGG | -0.15 kcal/mol
52 | TGATACACGTGATTGA | 0.32 kcal/mol
53 | GTTTGCACGTGTGGAC | 0.11 kcal/mol
54 | GGTGGCACGTGATAGA | -0.1 kcal/mol
55 | TGGAGCACGTGGAATG | 0.07 kcal/mol
56 | GTTATCACGTGATGCT | 0.22 kcal/mol
57 | TAGAGCACGTGGGGAA | -0.11 kcal/mol
58 | TTCTGCACGTGGTTAT | -0.1 kcal/mol
59 | TGAGGCACGTGAATGC | 0.1 kcal/mol
60 | CAAGGCACGTGGGGGT | -0.18 kcal/mol
61 | TTGGGCACGTGAGATC | 0.09 kcal/mol
62 | TGTTTCACGTGCGGTA | 0.29 kcal/mol
63 | GTTGGCACGTGTACTT | -0.07 kcal/mol
64 | TGCATCACGTGTAATG | 0.09 kcal/mol
65 | GAGAGCACGTGGTTGT | -0.04 kcal/mol
66 | GGTTCCACGTGTCGGT | 0.06 kcal/mol
67 | GGATACACGTGGGTTT | 0.09 kcal/mol
68 | TTCTACACGTGATTGG | 0.25 kcal/mol
69 | GATTGCACGTGGGGGC | 0.02 kcal/mol
70 | ATGGGCACGTGAGAAA | 0.14 kcal/mol
71 | CGATACACGTGTGTTG | -0.13 kcal/mol
72 | TTTGTCACGTGCGAAA | 0.11 kcal/mol
73 | TGTAGCACGTGCGTAA | -0.24 kcal/mol
74 | AATGGCACGTGATCTG | -0.04 kcal/mol
75 | ATGTTCACGTGAGTAA | 0.33 kcal/mol

Row | Sequence | relative binding free energy
76 | TGCAGCACGTGAGGGG | 0.05 kcal/mol
77 | GTAGTCACGTGTGTTC | 0.14 kcal/mol
78 | TTTCACACGTGTGTTA | 0.1 kcal/mol
79 | GTAGCCACGTGGGGGT | -0.21 kcal/mol
80 | GGTAACACGTGTGAAT | 0.07 kcal/mol
81 | TGTCGCACGTGTGCAT | 0.11 kcal/mol
82 | ACAGGCACGTGTAGGT | -0.1 kcal/mol
83 | GGCCTCACGTGATGGT | 0.33 kcal/mol
84 | GGGGACACGTGTTATT | 0.02 kcal/mol
85 | ATTTTCACGTGGCGCG | 0.19 kcal/mol
86 | GGATGCACGTGGGTTC | 0.02 kcal/mol
87 | GTGGTCACGTGAGGCA | 0.27 kcal/mol
88 | TTCAGCACGTGGGTTG | -0.08 kcal/mol
89 | CGAAACACGTGGTGGT | 0.09 kcal/mol
90 | ATACGCACGTGGTTGG | -0.29 kcal/mol
91 | AGAGTCACGTGAAGAT | 0.3 kcal/mol
92 | ATGGTCACGTGATTTA | 0.32 kcal/mol
93 | AAGGTCACGTGTTATA | 0.11 kcal/mol
94 | CGTATCACGTGGTTAG | 0.06 kcal/mol
95 | GGTAGCACGTGAATAG | 0.33 kcal/mol
96 | TATGGCACGTGAGTGA | 0.08 kcal/mol
97 | ATGAGCACGTGCGCGT | -0.18 kcal/mol
98 | TTAGTCACGTGTAATC | 0.17 kcal/mol
99 | AATAACACGTGGTAGT | 0 kcal/mol
100 | AATGACACGTGTTTTT | 0.02 kcal/mol

Row | Sequence | relative binding free energy
101 | GGTTTCACGTGGGTAT | 0.31 kcal/mol
102 | GGGTGCACGTGTGGCA | -0.01 kcal/mol
103 | ATTGACACGTGGTTCT | -0.05 kcal/mol
104 | GTGGACACGTGGTGTA | -0.11 kcal/mol
105 | AGAGGCACGTGCGGGA | -0.26 kcal/mol
106 | CAGGGCACGTGCGGAG | -0.13 kcal/mol
107 | CTAAGCACGTGGGTGG | -0.31 kcal/mol
108 | TGGTTCACGTGAGTGC | 0.48 kcal/mol
109 | TTTTCCACGTGGGTCG | 0.02 kcal/mol
110 | CGGTTCACGTGAGGAG | 0.37 kcal/mol
111 | TTAAACACGTGATTAA | 0.27 kcal/mol
112 | CGGGTCACGTGTTAAG | 0.17 kcal/mol
113 | AATTGCACGTGTTTAT | -0.01 kcal/mol
114 | TCGATCACGTGGGTGG | 0.12 kcal/mol
115 | GTGAGCACGTGGTCTA | -0.13 kcal/mol
116 | TGTAGCACGTGGAGTA | -0.01 kcal/mol
117 | AAAGTCACGTGTGTAA | -0.01 kcal/mol
118 | TGTATCACGTGATGCA | 0.15 kcal/mol
119 | AATGGCACGTGAGTCA | 0.14 kcal/mol
120 | TGGATCACGTGATCTG | 0.26 kcal/mol
121 | GATTGCACGTGTGTGT | 0.14 kcal/mol
122 | GGCGGCACGTGGTCGC | 0.08 kcal/mol
123 | TTATCCACGTGTGGGG | -0.02 kcal/mol
124 | GGCTTCACGTGCTGTG | 0.23 kcal/mol
125 | TGCGCCACGTGTGTTA | -0.06 kcal/mol

Row | Sequence | relative binding free energy
126 | TATGTCACGTGAATAT | 0.29 kcal/mol
127 | GGCTACACGTGCTGGT | 0.26 kcal/mol
128 | GGAGGCACGTGGGACT | -0.15 kcal/mol
129 | GTTAGCACGTGGCATT | 0.13 kcal/mol
130 | AAGGGCACGTGAGCGA | 0.09 kcal/mol
131 | AGGGGCACGTGAAGGA | 0.19 kcal/mol
132 | TTAAACACGTGTGGGT | 0 kcal/mol
133 | TCTGTCACGTGGGCGT | 0 kcal/mol
134 | TTTATCACGTGGGTGT | 0.07 kcal/mol
135 | TGATCCACGTGGGGGG | -0.11 kcal/mol
136 | ATCATCACGTGTTGTT | 0.02 kcal/mol
137 | GGTTACACGTGTATCG | 0.25 kcal/mol
138 | TTGGACACGTGGGGGG | 0 kcal/mol
139 | TTTATCACGTGAGATA | 0.4 kcal/mol
140 | GCGGCCACGTGGGGGT | -0.14 kcal/mol
141 | GTGGACACGTGAGTGC | 0.26 kcal/mol
142 | TAAATCACGTGTATGG | 0.07 kcal/mol
143 | GTTGGCACGTGATGTT | 0.11 kcal/mol
144 | GGTGGCACGTGCTGGT | -0.07 kcal/mol
145 | TGGGCCACGTGAATTG | 0.27 kcal/mol
146 | TGGAACACGTGCGGTA | -0.01 kcal/mol

— the BET-seq Pho4 binding data (Le et al. 2018)
